Laboratory results taken from a collection of fitness landscapes (doi:10.1016/j.celrep.2020.107928).
Over roughly 81,000 sequences, “one-hybrid fitness for binding parS DNA” has its median near -0.17; the highest 2% begin near 0.51. The list shows a part of the results.

B1: Caulobacter ParB omega fusion; a variant is named by its letters at X, in order, B8GW30 (parent)
chain: MESVVVGEPGMSEGRRGLGRGLSALLGEVDAAPAQAPGEQLGGSREAPIEILQRNPDQPRRTFREEDLEDLSNSIREKGVLQPILVRPSPDTAGEYQIVAGERAWRAAQRAGLKTVPIMVRELDDLAVLEIGIIENVQRADLNVLEEALSYKVLMEKFERTQENIAQTIGKSXSHVANXMRLLXLPDEVQSYLVSGELTAXHARAIAAAADPVALAKQIIEGGLSVRETEALARKAPNLSAGKSKGGRPPRVKDTDTQALESDLSSVLGLDVSIDHRGSTGTLTITYATLEQLDDLCNRLTRGI

Variants of: B1
Assay: one-hybrid fitness for binding parS DNA (scaled: cognate 1, non-cognate 0); higher = stronger binding
Details: with parS DNA site
Procedure, shortened: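 Bacterial one-hybrid selection in E. coli USO rpoZ- hisB- pyrF- with a HIS3 reporter carrying the site 19 bp from the promoter, screening Caulobacter ParB libraries with four specificity codons randomised (NNS). Cells grew 48 hours at 37°C on M9-minus-histidine plus 0.1 mM IPTG and 5 mM 3-AT. Plasmids before and after selection were Illumina-sequenced, three replicate libraries pooled, and variants under 10 reads dropped. Fitness is the log change in variant-to-wild-type read ratio, rescaled to cognate 1, non-cognate 0.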

| Variant | one-hybrid fitness for binding parS DNA |
| --- | --- |
| WCRT | ≤ 0.2 |
| AYWG | ≤ 0.2 |
| MWSL | ≤ 0.2 |
| LLKA | ≤ 0.2 |
| CQGS | ≤ 0.2 |
| SLWM | ≤ 0.2 |
| TPVD | ≤ 0.2 |
| VTGR | ≤ 0.2 |
| DKLQ | ≤ 0.2 |
| NVCD | ≤ 0.2 |
| RIKA | 0.745 |
| PERV | ≤ 0.2 |
| TVNT | ≤ 0.2 |
| QMRI | ≤ 0.2 |
| LFDC | ≤ 0.2 |
| SIGT | ≤ 0.2 |
| NCPD | ≤ 0.2 |
| TYAG | ≤ 0.2 |
| SLSC | ≤ 0.2 |
| PSHV | ≤ 0.2 |
| RAVD | ≤ 0.2 |
| DIYP | ≤ 0.2 |
| RMVG | 0.971 |
| LPSC | ≤ 0.2 |
| TRWT | ≤ 0.2 |

| Variant | one-hybrid fitness for binding parS DNA |
| --- | --- |
| QKFW | ≤ 0.2 |
| MVKR | ≤ 0.2 |
| NNGD | ≤ 0.2 |
| ESKC | ≤ 0.2 |
| ARLY | ≤ 0.2 |
| HRGA | ≤ 0.2 |
| NTKW | ≤ 0.2 |
| LNMG | ≤ 0.2 |
| EHIS | ≤ 0.2 |
| RQQQ | ≤ 0.2 |
| ADQN | ≤ 0.2 |
| DRAQ | ≤ 0.2 |
| IWNR | ≤ 0.2 |
| EVMC | ≤ 0.2 |
| RFAR | ≤ 0.2 |
| RLVS | 1.03 |
| QMPY | ≤ 0.2 |
| IYRC | ≤ 0.2 |
| CDPT | ≤ 0.2 |
| YTNT | ≤ 0.2 |
| TRCS | ≤ 0.2 |
| MRVN | ≤ 0.2 |
| GSAH | ≤ 0.2 |
| YLSF | ≤ 0.2 |
| VRYQ | ≤ 0.2 |

| Variant | one-hybrid fitness for binding parS DNA |
| --- | --- |
| QQDA | ≤ 0.2 |
| RMMM | 0.311 |
| QHGY | ≤ 0.2 |
| AWIT | ≤ 0.2 |
| PSIR | ≤ 0.2 |
| LEYC | ≤ 0.2 |
| PKCY | ≤ 0.2 |
| QAYF | ≤ 0.2 |
| WIES | ≤ 0.2 |
| EPTD | ≤ 0.2 |
| CSPG | ≤ 0.2 |
| LLTR | ≤ 0.2 |
| QDPW | ≤ 0.2 |
| SLVG | ≤ 0.2 |
| NLLL | ≤ 0.2 |
| RPHA | ≤ 0.2 |
| ARTW | ≤ 0.2 |
| HFFS | ≤ 0.2 |
| YFCG | ≤ 0.2 |
| PVMM | ≤ 0.2 |
| QHKP | ≤ 0.2 |
| RSHT | 0.876 |
| PREG | ≤ 0.2 |
| NVAE | ≤ 0.2 |
| LAQM | ≤ 0.2 |

| Variant | one-hybrid fitness for binding parS DNA |
| --- | --- |
| HIVR | ≤ 0.2 |
| EQTC | ≤ 0.2 |
| CDHS | ≤ 0.2 |
| SPIE | ≤ 0.2 |
| DANC | ≤ 0.2 |
| IRTA | ≤ 0.2 |
| PASW | ≤ 0.2 |
| NADL | ≤ 0.2 |
| RGIH | ≤ 0.2 |
| SYPV | ≤ 0.2 |
| QCSC | ≤ 0.2 |
| LKVD | ≤ 0.2 |
| FVKE | ≤ 0.2 |
| LHEW | ≤ 0.2 |
| YRPL | ≤ 0.2 |
| NACC | ≤ 0.2 |
| TSSP | ≤ 0.2 |
| SYMS | ≤ 0.2 |
| TYLE | ≤ 0.2 |
| TYNF | ≤ 0.2 |
| ETRD | ≤ 0.2 |
| NDMF | ≤ 0.2 |
| FAFN | ≤ 0.2 |
| SHPY | ≤ 0.2 |
| FSQG | ≤ 0.2 |

| Variant | one-hybrid fitness for binding parS DNA |
| --- | --- |
| QKPW | ≤ 0.2 |
| QQWV | ≤ 0.2 |
| ATQF | ≤ 0.2 |
| WQCG | ≤ 0.2 |
| MLQS | ≤ 0.2 |
| AFFT | ≤ 0.2 |
| HDCG | ≤ 0.2 |
| MTNC | ≤ 0.2 |
| DQAY | ≤ 0.2 |
| PGEW | ≤ 0.2 |
| LPFK | ≤ 0.2 |
| WTCT | ≤ 0.2 |
| MTSM | ≤ 0.2 |
| WRMR | ≤ 0.2 |
| CQHG | ≤ 0.2 |
| ITFK | ≤ 0.2 |
| KYND | ≤ 0.2 |
| EHPQ | ≤ 0.2 |
| LQPK | ≤ 0.2 |
| DRRD | ≤ 0.2 |
| SRVQ | ≤ 0.2 |
| AVIG | ≤ 0.2 |
| LDDV | ≤ 0.2 |
| LPPR | ≤ 0.2 |
| TTGM | ≤ 0.2 |

| Variant | one-hybrid fitness for binding parS DNA |
| --- | --- |
| RNCW | ≤ 0.2 |
| LRDA | ≤ 0.2 |
| SAAC | ≤ 0.2 |
| QELL | ≤ 0.2 |
| TILS | ≤ 0.2 |
| AIPY | ≤ 0.2 |
| HVKK | ≤ 0.2 |
| AYPG | ≤ 0.2 |
| NTWR | ≤ 0.2 |
| SHIV | ≤ 0.2 |
| YHGP | ≤ 0.2 |
| EMAW | ≤ 0.2 |
| VAQG | ≤ 0.2 |
| LQRT | ≤ 0.2 |
| RPDG | ≤ 0.2 |
| HNEG | ≤ 0.2 |
| IVGL | ≤ 0.2 |
| VMYD | ≤ 0.2 |
| PDAS | ≤ 0.2 |
| LNCG | ≤ 0.2 |
| KHRG | ≤ 0.2 |
| NWRL | ≤ 0.2 |
| PGMN | ≤ 0.2 |
| RPMD | ≤ 0.2 |
| ESLD | ≤ 0.2 |

| Variant | one-hybrid fitness for binding parS DNA |
| --- | --- |
| SGNS | ≤ 0.2 |
| MQNP | ≤ 0.2 |
| RLGI | ≤ 0.2 |
| ARCE | ≤ 0.2 |
| TPNA | ≤ 0.2 |
| CRCK | ≤ 0.2 |
| NNPG | ≤ 0.2 |
| CASG | ≤ 0.2 |
| ARPW | ≤ 0.2 |
| ACHS | ≤ 0.2 |
| QPCR | ≤ 0.2 |
| SVQS | ≤ 0.2 |
| QAEN | ≤ 0.2 |
| RTTH | 0.232 |
| MTVR | ≤ 0.2 |
| WAEV | ≤ 0.2 |
| YSKC | ≤ 0.2 |
| MNSV | ≤ 0.2 |
| GAEW | ≤ 0.2 |
| PRQI | ≤ 0.2 |
| TYVK | ≤ 0.2 |
| PHHK | ≤ 0.2 |
| APVT | ≤ 0.2 |
| GVYI | ≤ 0.2 |
| HTNA | ≤ 0.2 |

| Variant | one-hybrid fitness for binding parS DNA |
| --- | --- |
| YSEM | ≤ 0.2 |
| QMCP | ≤ 0.2 |
| IPMT | ≤ 0.2 |
| IYHS | ≤ 0.2 |
| QNTY | ≤ 0.2 |
| RAWM | 0.35 |
| FLWG | ≤ 0.2 |
| RSSL | ≤ 0.2 |
| LWTR | ≤ 0.2 |
| EPVN | ≤ 0.2 |
| HTSL | ≤ 0.2 |
| RWWR | ≤ 0.2 |
| RDIT | ≤ 0.2 |
| NSFV | ≤ 0.2 |
| NPKI | ≤ 0.2 |
| KRGN | ≤ 0.2 |
| DPIT | ≤ 0.2 |
| KILS | ≤ 0.2 |
| TQCK | ≤ 0.2 |
| ACDR | ≤ 0.2 |
